According to US11684652B2, “HMGB1 antagonist treatment of acute lung injury” (THE FEINSTEIN INSTITUTES FOR MEDICAL RESEARCH, priority 2019, dated 2023):

Assays:
[1] = system: influenza virus A/PR/8/34 (PR8); experiment: lethal influenza infection model; format: in vivo; details: K883 100 ug/mouse intraperitoneally for 5 consecutive days from two days after infection; vs vehicle
[2] = system: influenza virus A/PR/8/34 (PR8); details: Shirey 2016, cited from earlier work

SMILES | clinical scores after PR8 infection [1] | clinical scores in survivors [2] | reduction of mortality ([2]; given daily for five days beginning two days after influenza infection)
NC(=O)N(CCC(=O)O)NC(=O)[C@H](CO)NC(=O)[C@H](CO)NC(=O)N(N)Cc1ccccc1 [K883] | lowered clinical scores | – | –
NC(=O)[C@H](CCC(=O)O)NC(=O)[C@H](CO)NC(=O)[C@H](CO)NC(=O)[C@@H](N)Cc1ccccc1 [P5779] | – | lowers clinical scores | approximately 9 fold
